About 60 (0.1%) of roughly 46,000 compounds were called active. Roughly 3% stayed inconclusive and do not appear here. The call rests on the fitted dose curve; in most records, active means well fitted inhibition curve with a large enough effect; inconclusive means small, poorly fitted or top-dose-only effect; inactive means no such curve, though single readings can be large or run the other way. The list shows a part of the results.

The nature of this test: Primary qHTS assay for Inhibitors of ovarian cancer metastasis using an organotypic tumor microenvironment (TME) model. Further: nearly all actives have a fitted effect of over 65% in size.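 On activity change, negative = inhibition: plate controls were DMSO wells for no effect and tomatine positive control wells for full effect.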 The conditions noted are these: SKOV3ip1-GFP adhesion/invasion on 3D omental model, fluorescence; series mostly up to 45.8 µM; activity change, negative = inhibition: at the top concentration. The procedure, abridged: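 Primary human omental fibroblast/mesothelial 3D culture pre-formed 48 h. SKOV3ip1-GFP cells added with compounds (0.36-46 umol/L), incubated 2 h RT/16 h 37 C, fixed; GFP cells quantified at 488/509 nm.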
Background: Quantitative high-throughput screening tests each substance at several concentrations.
Consider `CCOc1ccc(-c2cc3nc(C4CCN(C(=O)OC(C)(C)C)CC4)c(C(=O)Nc4ccc(C)cc4C)cn3n2)cc1`, for which the “activity change, negative = inhibition” value is inactive: 3%.
On to `COc1ccccc1N1CCN(C(=O)c2cc3ccc4ccc(C)[nH]c4c3n2)CC1`, for which the call was inactive.
In the case of `CCOC(=O)C1CCCN(S(=O)(=O)c2csc(C(N)=O)c2)C1` (configuration not stated), the “activity change, negative = inhibition” value was inactive: 4.22%.
For `Cc1ccc(CNC(=O)Cn2c(=O)n(-c3cccc(Cl)c3)c(=O)c3sc4ccccc4c32)cc1`, the compound was called inactive.
For `Cc1ccc(Cl)cc1NS(=O)(=O)c1cc2c3c(c1)CC(=O)N3CCC2`, the compound was called inactive.
Regarding `Cc1cccc(-n2c(SCC(=O)c3ccccc3)nnc2-c2ccc(Br)cc2)c1`, the “activity change, negative = inhibition” value was inactive: -3.43%.
Take `Cc1c2cnn(-c3ccccc3)c(=O)c2c(C)n1CC(=O)NCc1ccccc1`: the result was inactive.
On to `COc1cc2c(c(OC)c1)C(c1cc(OC)c(OC)c(OC)c1)CC(=O)N2` (configuration not stated), for which the call was inactive.
For the compound `CCCNC(=O)N1CCN(S(=O)(=O)c2ccc3c(ccn3C)c2)CC1`, the “activity change, negative = inhibition” value is inactive: -4.08%.
For `CCc1nn2c(=O)c(S(=O)(=O)Nc3cccc(F)c3)c(C)nc2s1`, the “activity change, negative = inhibition” value was inactive: 7.59%.
`CCC(Sc1nc2nccnc2c(=O)n1Cc1ccc(C)cc1)C(=O)NC1CCCCC1` (configuration not stated): the “activity change, negative = inhibition” value was inactive: 1.53%.
Consider `COc1cccc(CNC(=O)c2ccc(NC(=O)N3CC(C)Sc4ccccc43)cc2)c1` (configuration not stated), for which the “activity change, negative = inhibition” value is inactive: 0.831%.
Turning to `O=C(c1ccc(CS(=O)c2ccccc2Cl)o1)N1CCN(c2cccc(Cl)c2)CC1` (configuration not stated), the outcome was inactive.
Regarding `CC(CNC(=O)CCCn1c(=O)c2cccn2c2cccnc21)c1ccccc1` (configuration not stated), the result was inactive.
Regarding `CCC1CN(C(=O)Nc2ccc(C(=O)O)cc2)c2cc(Cl)ccc2O1` (configuration not stated), the “activity change, negative = inhibition” value was inactive: 0.799%.
On the same count and under the same terms, as for `Cc1ccc2nc(Cl)c3cc(C(=O)NC4CCCCCC4)sc3c2c1`, the figure is inactive: 5.93%; as for `O=C(CSc1cn(CC(=O)N2CCCC2)c2ccccc12)Nc1cc(C(F)(F)F)ccc1Cl`, inactive: 9.67%; as for `Cc1cccc(CCNC(=O)C2CCCN(S(=O)(=O)c3ccc4c(c3)oc(=O)n4C)C2)c1` (configuration not stated), inactive: 0.308%.
For the compound `CC(C)(C)OC(=O)N1CCC(c2c(C(=O)N3CCN(C(=O)c4ccco4)CC3)cnn2-c2ccccc2)CC1`, the “activity change, negative = inhibition” value was inactive: -5.35%.
Take `CCOc1cccc2sc(N(CCN(CC)CC)C(=O)c3ccco3)nc12`: the result was inactive.
With `COc1cc(NC(=O)c2ccc(NC(=O)N3CCSc4ncccc43)cc2)cc(OC)c1`, the “activity change, negative = inhibition” value is inactive: 1.15%.
For `COc1ccc(CCNC(=O)c2ccc(CNS(=O)(=O)c3ccccc3)cc2)cc1OC`, the “activity change, negative = inhibition” value is inactive: -8.13%.
Same read-out and setting: as for `CCCS(=O)(=O)c1nc(S(=O)(=O)c2ccc(C)cc2)c(NCc2ccccc2)s1`, the figure is inactive: 0.927%; as for `CN(Cc1ccccc1)C(=O)c1cn(C)c2ccc(S(=O)(=O)N(C)C3CCCCC3)cc2c1=O`, inactive: 20.2%.
Turning to `Cc1ccc2c(c1)c(=O)c1ccccc1n2CCCC(=O)Nc1c(F)cccc1F`, the compound was classed as inactive.
As to `COc1cc(NC(=O)c2c(C)oc3ncnc(N4CCCCC4)c23)cc(OC)c1`, the “activity change, negative = inhibition” value is inactive: -0.396%.
The same measure, in the same setting: as for `COc1ccc(NC(=O)c2c(C)oc3ccc(O)c(CN4CCN(Cc5ccccc5)CC4)c23)cc1`, the figure is inactive: -3.8%; as for `Cc1cccc(Cn2c(SCc3ccc(C(=O)NC4CCCCC4)cc3)nc3ccncc32)c1`, inactive: -1.7%.
Regarding `CCC(=O)N1CCc2cc(S(=O)(=O)CCC(=O)NCc3cccc(OC)c3)ccc21`, the result was inactive.
The same measure, in the same setting: as for `Cc1cc(Br)ccc1NC(=O)C1CCN(S(=O)(=O)c2ccc(Br)s2)CC1`, the entry is “inactive”.
With `COc1ccc(/C=C(/C#N)c2nc(-c3ccc(Br)cc3)cs2)cc1`, the “activity change, negative = inhibition” value was inactive: -2.27%.
As to `CCOc1ccc(NC(=O)CCS(=O)(=O)c2ccc(Br)cc2)cc1`, the call was inactive.
In the case of `Cc1ccc(C(=O)COC(=O)CCC(=O)Nc2ccc(Oc3cc(C)ccc3C(C)C)cc2)cc1`, the “activity change, negative = inhibition” value is inactive: 5.92%.
Regarding `CCc1ccc(C2=NN(CCC(=O)NCCc3ccc(Cl)cc3)C(=O)CC2)cc1`, the “activity change, negative = inhibition” value is inactive: -2.05%.
Regarding `Cc1ccc(OC(=O)CSc2nnc(CNC(=O)c3ccccc3)o2)cc1`, the “activity change, negative = inhibition” value is inactive: 2.57%.
Consider `CC(=O)N1CCCc2cc(S(=O)(=O)N3CCCC(C(=O)N4CCN(c5cc(C)ccc5C)CC4)C3)ccc21` (configuration not stated), for which the “activity change, negative = inhibition” value is inactive: -21.8%.
Consider `Cc1ccc2c(c1)-c1c(cnn1CC(=O)Nc1ccccc1C#N)CO2`, for which the “activity change, negative = inhibition” value is inactive: 4.92%.
As for `Cc1c(C(=O)NCCN(C)C)sc2nc3n(c(=O)c12)CCC3`, the “activity change, negative = inhibition” value was inactive: 34.8%.
For `CCOC(=O)c1nnc2c(-c3ccc(Cl)cc3)c(C)nn2c1C`, the “activity change, negative = inhibition” value was inactive: -5.67%.
On to `Cc1ccc(CCNC(=O)CCSCc2ccccc2Cl)cc1`, for which the “activity change, negative = inhibition” value was inactive: 0.662%.
Regarding `CCCn1c2ccccc2c2cnn(CC(=O)NC(CCSC)C(=O)OC)c(=O)c21` (configuration not stated), the “activity change, negative = inhibition” value is inactive: 5.74%.
On to `O=C(NCC(c1ccccc1)c1ccccc1)c1nn(-c2ccccc2F)nc1CO`, for which the “activity change, negative = inhibition” value is inactive: -1.37%.
Consider `COc1ccc(C(=O)Oc2ccc(C(c3c(C)[nH][nH]c3=O)c3c(C)[nH][nH]c3=O)cc2OC)cc1`, for which the result was inactive.
`CN1CCN(CCC(=O)Nc2ccc(Cl)cc2)CC1`: the “activity change, negative = inhibition” value is inactive: 4.7%.
For the compound `CC(C)c1ccc(NC(=O)CCNS(=O)(=O)c2cccc3nsnc23)cc1`, the “activity change, negative = inhibition” value is inactive: 28.3%.
For the compound `COc1ccc(OC)c(NS(=O)(=O)c2ccc(Br)s2)c1`, the “activity change, negative = inhibition” value is inactive: -7.77%.
The same measure, in the same setting: next, `O=C(Nc1ncc(SCCN2CCCC2)s1)[C@]1(c2ccc(S(=O)(=O)C3CC3)cc2)C[C@@H]1C1CCCCC1`: inactive: -4.76%.

Source of the values: PubChem BioAssay AID1963576 (National Center for Advancing Translational Sciences (NCATS), 2024).
